{"source": "paper PMC3546041", "about": "“Direct Homo- and Hetero-Interactions of MeCP2 and MBD2” (PLoS ONE, 2013)", "binders": {"B1": {"name": "strep-fused full-length MBD2 (natural protein, mouse)", "chain": "MRAHPGGGRCCPEQEEGESAAGGSGAGGDSAIEQGGQGSALAPSPVSGVRREGARGGGRGRGRWKQAARGGGVCGRGRGRGRGRGRGRGRGRGRGRPQSGGSGLGGDGGGGAGGCGGGSGGGVAPRRDPVPFPSGSSGPGPRGPRATES[about 60 residues not written out]SKLQKNKQRLRNDPLNQNKGKPDLNTTLPIRQTASIFKQPVTKFTNHPSNKVKSDPQRMNEQPRQLFWEKRLQGLSASDVTEQIIKTMELPKGLQGVGPGSNDETLLSAVASALHTSSAPITGQVSAAVEKNPAVWLNTSQPLCKAFIVTDEDIRKQEERVQQVRKKLEEALMADILSRAADTEEVDIDMDSGDEA", "notes": "MBD2a, mouse, full length; Made by replacing the GFP of MBD2G with a strep-tag; also called MBD2st; source: Sf9 (baculovirus), purified (Strep-Tactin Sepharose, eluted with desthiobiotin)"}}, "molecular_target": "T1, GFP-tagged full-length MBD2 (Sf9) (mouse, UniProt Q9Z2E1 1-414)", "T1 construct": "MBD2a, mouse, full length (414 residues by the limits of the deletion constructs); Cloned into pFB-C-GFP; also called MBD2G; MBD2aG; source: Sf9 (baculovirus); immobilised on GBP-sepharose beads and washed, or used as protein extract", "test": "pull-down; GFP-labelled full-length MBD proteins or GFP immobilised on GBP-sepharose beads; purified MBD2st in solution; proteins extracted with 0.5 M NaCl lysis buffer; PBS plus 150 mM NaCl, 0.05% NP-40; 1 h, 4 C; Western blot with st-HRP", "conditions": "both partners purified"}
{"binder": "B1", "values": [{"measurement": "binding result", "result": "binds"}]}
